Source: PubChem BioAssay AID588453 (National Center for Advancing Translational Sciences (NCATS), 2011)
Among all 390,000 compounds or so, about 4,000 (1%) were called active. Inconclusive results, whose numbers are uncertain, are shown with a selection of clear calls. Calls come from the whole dose curve; as a rule, active = well fitted inhibition curve with a large enough effect; inconclusive = small, poorly fitted or top-dose-only effect; inactive = no such curve, though single readings can be large or run the other way. Potencies of inconclusive entries are doubtful fits and often do not repeat.

The molecules below were run against Thioredoxin reductase 1, cytoplasmic (Rattus norvegicus) (UniProt O89049) (assay: qHTS Assay for Inhibitors of Mammalian Selenoprotein Thioredoxin Reductase 1 (TrxR1): qHTS). Conditions: recombinant rTrxR1, NADPH fluorescence consumption, selenite substrate; series mostly up to 114 µM.
Sequence of UniProt O89049 (O89049 whole entry, looked up): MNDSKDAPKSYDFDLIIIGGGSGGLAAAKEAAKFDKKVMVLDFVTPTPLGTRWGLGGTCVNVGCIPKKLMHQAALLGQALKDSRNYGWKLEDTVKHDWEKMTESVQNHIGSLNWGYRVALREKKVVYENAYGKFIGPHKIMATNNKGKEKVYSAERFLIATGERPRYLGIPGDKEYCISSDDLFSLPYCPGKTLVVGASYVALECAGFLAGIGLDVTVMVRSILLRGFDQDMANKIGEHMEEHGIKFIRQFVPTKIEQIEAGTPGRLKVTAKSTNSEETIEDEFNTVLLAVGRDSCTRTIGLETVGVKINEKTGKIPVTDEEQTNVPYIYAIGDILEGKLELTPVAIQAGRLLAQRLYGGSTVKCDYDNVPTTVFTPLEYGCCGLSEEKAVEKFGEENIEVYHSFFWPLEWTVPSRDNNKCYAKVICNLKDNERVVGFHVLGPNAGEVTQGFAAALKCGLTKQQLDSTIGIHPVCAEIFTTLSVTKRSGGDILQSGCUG
Procedure, shortened: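 Rat TrxR1 (90 nM in the dispensed reagent) was pre-reduced with 400 uM NADPH for 5 min at room temperature, then incubated with compound for 15 min. After 400 uM selenite was added, NADPH fluorescence (Ex 340/Em 450 nm) was followed for 8 min.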
Note: nearly all actives have a fitted effect of over 65% in size.
Potency is the fitted concentration of half-maximal effect; tags give direction and shape of the fitted curve.

| Structure (SMILES) | Potency |
| --- | --- |
| CC(C)=CCc1c2c(c3occ(-c4ccc(O)cc4)c(=O)c3c1O)C=CC(C)(C)O2 | inactive |
| CCOC(=O)CSc1nnc(NCC(=O)OC(C)C)c(=O)[nH]1 | active: 1.78 µM |
| O=C(NCc1ccco1)/C(=C/c1ccccc1)NC(=O)c1ccco1 | inactive |
| O=C(CSc1nnc(-c2ccccn2)n1Cc1ccco1)c1ccc(Cl)cc1 | inconclusive: 70.8 µM [inhibitor, single point] |
| COc1ccc(Nc2nnc(SCC(=O)c3cc4ccccc4o3)s2)cc1 | inconclusive: 44.7 µM [inhibitor, partial curve] |
| CCOC(=O)c1ccc(N2C(=O)c3n[nH]c(C)c3C2c2ccccc2OC)cc1 (stereo unspecified) | inactive |
| COC(=O)c1cc(OC)c(OC)cc1NC(=S)N1CCN(C/C=C/c2ccccc2)CC1 | inconclusive: 79.4 µM [inhibitor, single point] |
| COc1ccc(NC(=O)c2c(NCc3ccc(N(C)C)cc3)sc3c2CCC3)cc1 | inconclusive: 39.8 µM [inhibitor, partial curve, poor fit] |
| CCc1ccc(N2CCn3c2nc2c3c(=O)n(C/C=C/c3ccccc3)c(=O)n2C)cc1 | inactive |
| CCOC(=O)c1c(-c2ccc(C)o2)csc1NC(=O)COC(=O)c1cccs1 | inconclusive: 50.1 µM [inhibitor, partial curve] |
| Cc1ccc(C(=O)N/N=C\c2ccc(Br)o2)o1 | inconclusive: 50.1 µM [inhibitor, partial curve, poor fit] |
| COCCN1CCn2c(nc3cc(NC(C)=O)ccc32)C1 | inconclusive: 79.4 µM [inhibitor, single point] |
| Cc1ccc(Nc2ncc(C(=O)N3CCN(c4ccc(F)cc4)CC3)c3ccccc23)cc1Cl | inactive |
| CCOc1cc(/C=C2\N=C(C)OC2=O)cc(Cl)c1OCC(=O)OC | inconclusive: 14.1 µM [inhibitor, partial curve] |
| Cc1ccc(NC(=S)NC(=O)C2CCCC2)cc1C | inconclusive: 56.2 µM [inhibitor, partial curve, poor fit] |
| CCCCN1CC[C@H]2C=CC[C@@H](C(=O)NCc3cccnc3)[C@H]2C1=O | inactive |
| COc1ccc(N2CCN(CC(=O)c3ccc(Cl)cc3)CC2)cc1 | inconclusive: 17.8 µM [inhibitor, full curve] |
| Cn1c(=O)c(C(=O)CCl)c(N)n(Cc2ccccc2)c1=O | inconclusive: 35.5 µM [inhibitor, single point] |
| Cc1ccccc1C(=O)NC(=S)Nc1ccc(N2CCOCC2)cc1 | active: 56.2 µM |
| CCOc1ccc(/C(O)=C2/C(=O)C(=O)N(CCN(CC)CC)C2c2ccco2)cc1 (stereo unspecified) | inconclusive: 70.8 µM [inhibitor, partial curve, poor fit] |
| COCCn1cnnc1SCC(=O)c1ccc(S(=O)(=O)N2CCCC2)cc1 | inconclusive: 22.4 µM [inhibitor, full curve] |
| COc1ccc(Nc2nc(C)nc3c2oc2ccccc23)c(OC)c1 | inconclusive: 35.5 µM [inhibitor, single point] |
| CCOc1cc(C(=O)Nc2cc3c(cc2N2CCCC2)n(C)c(=O)n3C)cc(OCC)c1OCC | inconclusive: 79.4 µM [inhibitor, single point] |
| Cc1ccc(NC2=C(CC(=O)O)C(c3ccc(F)cc3)N(c3ccc(C)cc3)C2=O)cc1 (stereo unspecified) | inconclusive: 44.7 µM [inhibitor, partial curve, poor fit] |

| Structure (SMILES) | Potency |
| --- | --- |
| C=CCn1c(SCC(=O)Nc2nccs2)nnc1-c1ccco1 | inconclusive: 22.4 µM [inhibitor, full curve] |
| CC(=O)Oc1ccc2nonc2c1OC(C)=O | inconclusive: 14.1 µM [inhibitor, full curve, poor fit] |
| CC1(C)CC(Nc2ccc(Nc3ccccc3)cc2)CC(C)(C)N1 | inconclusive: 12.6 µM [inhibitor, partial curve, poor fit] |
| Cc1ccccc1-n1c(CSC(=N)N)nc2ccccc2c1=O | inactive |
| CCCCSc1nc(N)c(C#N)c(-c2cccs2)c1C#N | inactive |
| O=C(Cn1c2ncccc2c(=O)n1-c1ccccc1)NCc1ccccc1Cl | inactive |
| Cc1cccc(Oc2nc(CN3CCOCC3)nc3sc4c(c23)CCCC4)c1 | inconclusive: 28.2 µM [inhibitor, partial curve, poor fit] |
| O=C(c1ccco1)N1N=C(c2cccs2)CC1c1cc([N+](=O)[O-])ccc1O (stereo unspecified) | inconclusive: 56.2 µM [inhibitor, partial curve] |
| Fc1ccc(CNCc2ccco2)cc1 | inconclusive: 50.1 µM [inhibitor, partial curve] |
| COc1cc2c(c(OC)c1OC)C(c1ccc(O)cc1)CC(=O)O2 (stereo unspecified) | inactive |
| CCc1ccc2[nH]c(=O)c(CN(Cc3ccccc3)Cc3nnnn3Cc3ccco3)cc2c1 | inactive |
| COC(=O)CN1C(=O)C2(C(C#N)=C(N)Oc3n[nH]c(-c4cccs4)c32)c2ccccc21 (stereo unspecified) | inconclusive: 14.1 µM [inhibitor, full curve, poor fit] |
| COC(=O)c1sc2ncccc2c1-n1c(C)ccc1C | inconclusive: 89.1 µM [inhibitor, single point] |
| O=C(Cc1cccs1)NCc1ccc(Cl)cc1Cl | inactive |
| COc1ccc(C(=O)c2sc3nc(C)cc(-c4cccs4)c3c2N)cc1OC | inactive |
| Cc1ccc(NC(=O)CN(C)S(=O)(=O)c2cccc3cccnc23)cc1 | inconclusive: 89.1 µM [inhibitor, partial curve, poor fit] |
| Cc1ccc(-c2nc3ncccn3c2Nc2ccc3c(c2)OCCO3)o1 | active: 39.8 µM |
| Nc1c(Br)cc(C=O)cc1Br | inactive |
| COc1cccc(CN2CCNC(=O)C2CC(=O)N(C)Cc2nc(C)cs2)c1OC (stereo unspecified) | inconclusive: 20 µM [inhibitor, partial curve, poor fit] |
| O=S(=O)(O)c1ccc2c(N=Nc3ccc(S(=O)(=O)O)c4ccccc34)c(O)c(S(=O)(=O)O)cc2c1 | active: 70.8 µM |
| Cc1ccc2[nH]c(C)cc(=S)c2c1 | inconclusive: 25.1 µM [inhibitor, single point] |
| O=C(Nc1cccc(F)c1)OC(CN1CCCCC1)C(F)(F)F (stereo unspecified) | inconclusive: 39.8 µM [inhibitor, single point] |
| CCc1ccc(-c2nc(CS(=O)CC(=O)NCc3cccnc3)c(C)o2)cc1 (stereo unspecified) | inconclusive: 50.1 µM [inhibitor, partial curve] |
| CCN(c1ccccc1)S(=O)(=O)c1ccc(NC(=S)NC(=O)c2cccs2)cc1 | inconclusive: 20 µM [inhibitor, single point] |

| Structure (SMILES) | Potency |
| --- | --- |
| Cc1cc(N2CCCCC2)nc2ccc(NC(=O)/C=C/c3ccc(OC(C)C)cc3)cc12 | inactive |
| Cc1cc(F)ccc1N1CCC(N2CCN(C(C)C)C(CCO)C2)CC1 (stereo unspecified) | inconclusive: 56.2 µM [inhibitor, single point] |
| CCC1(C)CC(c2nc(-c3ccc(OC)cc3)cs2)CCS1 (stereo unspecified) | inconclusive: 70.8 µM [inhibitor, single point] |
| Cc1ccc(NC(=O)CCC(=O)c2cccs2)nc1 | inconclusive: 20 µM [inhibitor, partial curve, poor fit] |
| CCCCn1c(SCc2ccc(C(=O)OC)o2)nc2cc(S(N)(=O)=O)ccc21 | inconclusive: 14.1 µM [inhibitor, full curve, poor fit] |
| CC(C)Oc1ccc(CNS(=O)(=O)c2ccc3c(c2)C(C)(C)C(=O)N3C)cc1 | inactive |
| COC(=O)c1cc(S(=O)(=O)N2CCN(c3ccc(OC)cc3)CC2)c[nH]1 | inactive |
| COC(=O)c1ccc(N2NC(=O)/C(=C/c3cc(OC)c(OC)c(OC)c3)C2=O)cc1 | inconclusive: 56.2 µM [inhibitor, partial curve] |
| CCNC(=S)NS(=O)(=O)c1ccc(CC)cc1 | inconclusive: 89.1 µM [inhibitor, partial curve, poor fit] |
| O=C(NC1CCN(Cc2ccccc2)CC1)c1cccc(S(=O)(=O)Nc2ccc(Br)cc2)c1 | inactive |
| CC1CCN(c2ccc(NC(=S)NC(=O)c3ccc(-c4cccc([N+](=O)[O-])c4)o3)cc2)CC1 | active: 20 µM |
| CSC1=NSC2=NC(=O)/C(=C\c3cccs3)C(=N)N12 | inconclusive: 50.1 µM [inhibitor, partial curve] |
| Nc1ncnc(Sc2ncccn2)c1[N+](=O)[O-] | active: 1.41 µM |
| CC(C)CCn1c(SCc2ccc(Cl)cc2)nc2c1c(=O)[nH]c(=O)n2C | inactive |
| COc1cc(CN2CCN(Cc3ccc(C)cc3)C(CCO)C2)cc(OC)c1O (stereo unspecified) | inconclusive: 22.4 µM [inhibitor, single point] |
| Fc1ccc(C2CC(c3ccco3)n3ncnc3N2)cc1 (stereo unspecified) | inconclusive: 89.1 µM [inhibitor, single point] |
| CN(C)Cc1cn(CCC(=O)O)c2ccccc12 | inconclusive: 89.1 µM [inhibitor, single point] |
| CON(C)S(=O)(=O)c1ccc2c(c1)NC(=O)C1CCCN21 (stereo unspecified) | inconclusive: 35.5 µM [inhibitor, single point] |
| O=C1C(Br)=C(c2ccccc2)C(c2ccccc2)=C1c1ccccc1 | active: 0.708 µM |
| COc1cccc2cc(C(=O)C3=C(O)C(=O)N(c4cc(C)on4)C3c3cccs3)oc12 (stereo unspecified) | active: 50.1 µM |
| CC(/C=N/n1c(-c2ccncc2)n[nH]c1=S)=C\c1ccco1 | active: 50.1 µM |
| Oc1[nH]c2ccccc2c1N=Nc1nc(Nc2ccccc2)nc(N2CCOCC2)n1 | inactive |
| COc1ccc(O)c(C(c2c(C)[nH][nH]c2=O)c2c(C)[nH][nH]c2=O)c1 | inactive |
